Laboratory results: paper PMC6919601, “Identification of Plasmodium dipeptidyl aminopeptidase allosteric inhibitors by high throughput screening” (PLoS ONE, 2019)
About 230 (0.21%) of roughly 110,000 compounds showed an effect of 50% or more. The list shows a part of the results.

target: DPAP1 (Plasmodium falciparum, UniProt Q8IIJ9); experiment: primary screen, percent inhibition; read by cleavage of a fluorogenic dipeptide substrate; higher = more effect of the substance; design: species or system P. falciparum D10 trophozoite lysates; single well
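Also: 30 min substrate incubation versus DMSO and 10 µM JCP410 controls.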

Sequence of DPAP1 (Q8IIJ9 whole entry, looked up): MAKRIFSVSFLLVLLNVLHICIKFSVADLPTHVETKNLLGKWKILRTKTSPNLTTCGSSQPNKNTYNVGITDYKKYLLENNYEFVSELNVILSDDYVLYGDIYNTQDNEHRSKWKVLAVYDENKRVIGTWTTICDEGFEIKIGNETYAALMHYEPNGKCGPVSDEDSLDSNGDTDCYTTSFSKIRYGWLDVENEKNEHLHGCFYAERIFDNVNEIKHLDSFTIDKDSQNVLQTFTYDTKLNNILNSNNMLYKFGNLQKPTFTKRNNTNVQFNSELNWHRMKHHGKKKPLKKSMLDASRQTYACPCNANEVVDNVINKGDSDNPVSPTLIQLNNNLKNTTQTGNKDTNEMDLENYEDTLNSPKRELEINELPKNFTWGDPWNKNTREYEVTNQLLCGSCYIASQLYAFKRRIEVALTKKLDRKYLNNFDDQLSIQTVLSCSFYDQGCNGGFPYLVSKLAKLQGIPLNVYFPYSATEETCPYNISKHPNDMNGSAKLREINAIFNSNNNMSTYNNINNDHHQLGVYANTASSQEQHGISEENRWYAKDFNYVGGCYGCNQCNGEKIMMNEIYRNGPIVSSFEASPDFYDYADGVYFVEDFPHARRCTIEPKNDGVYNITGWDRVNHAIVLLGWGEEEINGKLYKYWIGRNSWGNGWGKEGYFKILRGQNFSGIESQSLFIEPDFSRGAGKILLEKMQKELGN

SMILES	% Inhibition @ 10 uM
O=C1NC(c2cccc(F)c2)=N/C1=C\C=C\c1ccccc1	0.64%
CC(c1ccc(C2CC2C2CC2)o1)c1ccc(C2CC2C2CC2)o1 (stereo not drawn)	3.06%
O=C(NCCc1ccccc1)c1ccc(NS(=O)(=O)c2cccc(F)c2)cc1	-9.26%
CCOC(=O)c1c(C)oc2ccc(O)cc12	-0.128%
O=C(CNS(=O)(=O)c1ccc(Br)s1)N1CC=C(c2ccccc2)CC1	3.27%
O=C(c1ccccc1)N(Cc1ccccc1)[C@H]1C[C@@H]1c1ccccc1	-2.42%
Cc1ccc(-c2cc(C(=O)NCc3ccc(S(N)(=O)=O)cc3)c3ccccc3n2)cc1	-2.3%
Cc1ccccc1NC(=O)c1ccc([N+](=O)[O-])cc1C(=O)O	0.00784%
Cn1nc(C(=O)Nc2cccnc2)c2c1-c1ccccc1SC2	33.9%
CC(C)=C1C2CCC1C(C(=O)Nc1ccc(C)c(C)c1)C2C(=O)O (stereo not drawn)	-0.994%
CCNC(=O)N(C)Cc1nc(-c2ccc(OC)c(OC)c2)no1	-3.49%
C=C1c2ccccc2NC(=O)N1c1ccc(Cl)c(Cl)c1	-1.55%
CC1(C)CC(=O)C(/C=N/c2ccccc2C(N)=O)=C(O)C1	-4.48%
CCC(C)NC(=O)C1c2ccccc2C(=O)N(C2CCCC2)C1c1cccs1 (stereo not drawn)	-0.825%
CCn1cc(/C=C(\NC(=O)c2ccccc2F)C(=O)NCc2ccco2)c2ccccc21	-3.52%
CCCCCOc1ccc(/C=C/C(=O)NCc2ccco2)cc1OC	10.6%
COc1ccc(CSc2ncnc3c2sc2nc4c(cc23)COC(C)(C)C4)cc1	-4.85%
Oc1c2c(nc3nc(COc4ccccc4)nn13)CCC2	2.62%
CCN(CCCNC(=O)Cn1ncc2c1-c1cc(C)ccc1OC2)Cc1ccccc1	-0.0881%
Cc1cc(N2CCCCC2)c(F)cc1C(=O)c1ccccc1	4.26%
Cc1ccc(CN2CCN(CC(=O)NC(C)c3ccc4c(c3)OCCO4)C2=O)cc1 (stereo not drawn)	3.93%
COC(=O)c1conc1-c1ccccn1	-6.22%
O=C(NCc1ccc(F)cc1)c1nc2ncccn2n1	-3.53%
O=C(CCc1ccc(S(=O)(=O)NCc2ccccc2)cc1)N1CCN(c2ccccc2)CC1	0.145%
OCC1CCCN1Cc1ccc2c(c1)Cc1ccccc1-2 (stereo not drawn)	-0.0648%

SMILES	% Inhibition @ 10 uM
O=C1N(c2ccccc2)C2CS(=O)(=O)CC2N1c1ccc(Br)cc1 (stereo not drawn)	-2.14%
COc1ccc(C(=O)Nc2ccc(CN3CCOCC3)cc2)cc1	-3.09%
Nc1nc(N)nc(-c2ccccc2O)n1	-6.11%
O=C(/C(=C/c1ccc(F)cc1)c1nc2ccccc2[nH]1)c1ccccc1	3.01%
O=C(Cc1cccs1)NCc1cccc(C(F)(F)F)c1	20.2%
CCN(CC)CCN1C(=O)C(O)=C(C(=O)c2ccc(C)cc2)C1c1ccc(F)cc1 (stereo not drawn)	1.29%
COc1ccc(-c2cc(C)no2)cc1S(=O)(=O)N1CCC(c2ccccc2)C1 (stereo not drawn)	-4.55%
O=C(Nc1ccccc1O)C1CCCCC1	-6.05%
N#CCNC(=O)CCC1CCN(C(=O)OCC2c3ccccc3-c3ccccc32)CC1	1.35%
OCC1CCCN1C1CCN(CCc2ccccc2)CC1 (stereo not drawn)	10.2%
O=C(N/C(=C\c1cc(-c2ccccc2)nn1-c1ccccc1)C(=O)N1CCOCC1)c1ccc(Cl)cc1Cl	-2.59%
COc1ccc(-c2ccc3c(N)c(C(=O)NCCc4ccc(OC)c(OC)c4)sc3n2)cc1	-8.09%
COc1ccc(CCNC2=C(Cl)C(=O)N(Cc3ccccc3)C2=O)cc1OC	-4.33%
CCCn1c2ccccc2c2cnn(CC(=O)NC3CCN(Cc4ccccc4)CC3)c(=O)c21	3.05%
CN(Cc1ccccc1)C(=O)c1ccc2c(c1)ncn2C1CCCC1	0.387%
CC1=C(C(=O)Nc2ccc(C)cc2)C(c2ccc(N(C)C)cc2)NC(S)=N1 (stereo not drawn)	-0.582%
COCCCNC(=O)CN1C(=O)CSc2nc(C)cc(C)c21	1.03%
Cn1c(=O)c2c(nc(OC/C=C\c3ccccc3)n2C)n(C)c1=O	2.84%
Cc1ccc(-c2nc3ccccc3n3cc4c(=O)n(C)c(=O)n(C)c4c23)cc1	2%
CN(Cc1ccco1)C(=O)Cn1nc(Cc2cccnc2)c2ccccc2c1=O	-6.52%
CCS(=O)(=O)c1c(S(=O)(=O)CC)c2c(C)cccn2c1C(=O)c1ccccc1	-3.83%
NC(=O)c1cccnc1Nc1ccc(Cl)c(C(F)(F)F)c1	0.83%
COc1ccc(-n2c(O)cc(=O)[nH]c2=S)cc1	2.22%
COc1ccc(-c2nn(C)c(=O)c3ccccc23)cc1CNC(=O)c1ccccc1Cl	2.1%
O=C(Cn1ncc2c1-c1ccccc1OC2)N1CCc2ccccc2C1	2.6%

SMILES	% Inhibition @ 10 uM
CCN(c1ccccc1)S(=O)(=O)c1cc(Cl)ccc1Cl	-3.42%
Cc1ccc2[nH]c3c(c2c1)CCCC3N1CCOCC1 (stereo not drawn)	-1.08%
CC(C)C[C@H](NC(=O)c1ccc(-c2ccc(S(C)(=O)=O)cc2)cc1)C(=O)NCC#N	15.9%
CCc1cc(C)cc(OCC(O)Cn2c(C)[n+](C)c3ccccc32)c1 (stereo not drawn)	-5.85%
CC(=C1C(=O)c2ccccc2C1=O)N1CCN(CC/N=C(\C)C2=C(O)CC(C)(C)CC2=O)CC1	-4.41%
CS(=O)(=O)CCC(C(=O)O)N1C(=O)c2ccccc2C1=O (stereo not drawn)	2.76%
CN1C(=O)/C(=C\c2ccncc2)S/C1=N/c1ccccc1	-10.2%
O=C(COc1ccccc1)N1CCN(Cc2ccncc2)CC1	3.56%
O=C(NCC1COc2ccccc2O1)C1C2C=CC3(CN(Cc4cccs4)C(=O)C13)O2 (stereo not drawn)	-0.503%
O=C(NCc1ccccc1Br)c1ccc2nc(N3CCOCC3)sc2c1	-5.15%
CCN(CCN(C)C)Cc1cc(OC)c(OC)cc1[N+](=O)[O-]	-2.34%
COc1cccc2c1OC(C)(C)N1N=C(c3cc(Cl)ccc3O)CC21 (stereo not drawn)	1.76%
CCN1C(C(=O)c2ccccc2)=C(NC(=O)COc2ccc(C)cc2)c2ccccc2S1(=O)=O	-3.63%
Cc1cccn2c(=O)c3cc(C(=O)NCc4ccco4)c(=N)n(C4CCCCC4)c3nc12	0.279%
Fc1cccc(Cl)c1Cc1nnc(-c2ccccc2)o1	2.5%
CCOC(=O)N1CCN(Cc2nc(-c3ccccc3)no2)CC1	-1.81%
O=Cc1cc(Br)ccc1OCc1c(F)cccc1Cl	3.25%
O=C(c1cnn(-c2ccccc2)c1-n1cccc1)N1CCCC(C(=O)N2CCOCC2)C1 (stereo not drawn)	4.95%
CC(CNC(=O)Cn1ncn2cccc2c1=O)c1ccccc1 (stereo not drawn)	-8.77%
COc1ccc(C(=O)CCNCCC(=O)O)cc1	30.1%
CC(C)NC(=O)C1CCCN(S(=O)(=O)c2ccc(F)cc2)C1 (stereo not drawn)	3.66%
CSc1ccc(CCNC(=O)c2ccc(CS(=O)c3ccccc3C)o2)cc1 (stereo not drawn)	2.03%
CC(C)C[C@H](NC(=O)c1ccc(N2CCN(C)CC2)cc1)C(=O)N[C@@H](CCCCNC(=O)OCc1ccccc1)C(=O)O	-4.72%
COCCCNc1ncnc2c1cnn2-c1cccc(C)c1	4.3%
COc1ccc(CNC(=O)c2cncc(Br)c2)cc1	0.503%

SMILES	% Inhibition @ 10 uM
O=C1CC(c2ccc(Cl)cc2)CC(=O)C1=CNCCN1CCN(C(=O)c2ccccc2)CC1 (stereo not drawn)	1.37%
Cc1cc(=O)n2nc(N(C)CC(=O)N3CCOCC3)sc2n1	6.06%
COc1ccc(OCc2ccc(C(=O)N3N=C(C)CC3(O)C(F)(F)F)cc2)cc1 (stereo not drawn)	5.61%
Cc1ccc2[nH]cc(CC(C)N)c2c1 (stereo not drawn)	0.279%
CCS(=O)(=O)C1=NSC2=NC(=O)/C(=C\c3ccc(O)c(OC)c3)C(=N)N21	1.85%
Cc1ccc(/C=C2/SC(N3CCOCC3)=NC2=O)o1	-2.8%
COc1ccc(CNC(=O)C2CC(=O)N(CCC(C)C)C2)cc1 (stereo not drawn)	3.66%
CCOc1ccc(Cl)cc1S(=O)(=O)N1CC(C)OC(C)C1 (stereo not drawn)	-6.44%
O=C(CNS(=O)(=O)c1ccc(Br)cc1)Nc1ccc(F)cc1	2.6%
Nc1nc(CN2CCCCCC2)nc(Nc2ccc(F)cc2)n1	-6.66%
Cc1cccc(N2CCN(C(=O)c3cccnc3)CC2)c1C	1.64%
CC1CCCC(NC(=O)C(NS(=O)(=O)c2cccc3nsnc23)c2ccccc2)C1C (stereo not drawn)	-3.23%
Cc1ccc2oc(=O)c3cc(C(=O)N4CCC5(CC4)OCCO5)sc3c2c1	1.66%
CC(C)OC(=O)NC1c2ccccc2CSc2ccccc21 (stereo not drawn)	-5.35%
C=CCOc1ccc(C(=O)N(Cc2ccc(OC)cc2)C2CCS(=O)(=O)C2)cc1 (stereo not drawn)	-4.85%
CCC(C)NC(=O)c1cc2c(=O)n3cccc(C)c3nc2n1C (stereo not drawn)	5.09%
CO/C(O)=C1\C(C)=Nc2nc(-c3ccccc3)nn2C1c1ccc(C)o1 (stereo not drawn)	-2.9%
O=C(CCCc1c[nH]c2ccccc12)NCc1ccccc1C(F)(F)F	0.238%
CCc1nc(N=C(N)N)nc2ccccc12	-4.58%
COc1cc(/C=C2\N=C(c3ccccc3C)OC2=O)cc(OC)c1OC	-4.5%
CNc1oc(-c2ccc(Cl)cc2Cl)nc1S(=O)(=O)c1ccccc1	-3.69%
FC(F)(F)c1cc(-c2ccc(Cl)cc2)nc(-n2cccn2)n1	-4.43%
O=C1c2n[nH]c(-c3ccccc3O)c2C(c2ccccc2F)N1Cc1ccco1 (stereo not drawn)	0.366%
CCOC(=O)c1c(NC(=O)c2cc(=O)c3cc(C)c(C)cc3o2)sc2c1CCCC2	-3.24%
